Measured values taken from ChEMBL document CHEMBL4888484, “Replenishing the malaria drug discovery pipeline: Screening and hit evaluation of the MMV Hit Generation Library 1 (HGL1) against asexual blood stage Plasmodium falciparum ,using a nano luciferase reporter read-out” (2022).
Hit rate of the full screen: of about 150,000 compounds, about 540 (0.36%) showed an effect of 50% or more. The list shows a part of the results.

System: Plasmodium falciparum
Assay: Primary screen in NF54 nanoGlo assay, in single point, at 2uM, 72h; a lower Z score goes with more inhibition
Type: functional, Erythrocyte
Conditions: timepoint 72 hour

SMILES | % Inhibition [%] | Z score
COc1ccccc1CNc1cccc(CCN2CCCC2)c1 | 27 | -3.92
CC(C)COc1ccc(-c2nc(=O)c(CCC(=O)N3CCC(C)CC3)n[nH]2)cc1 | -12 | 1.21
CC(C)c1ccc(-c2noc(CN3CCN(c4nccs4)CC3)n2)cc1 | -2 | 0.2
O=S(=O)(C1CCCCC1)N1CC2(CCCC2)C1 | -3 | 0.55
Cc1nccn1-c1cc(CNC(=O)[C@H]2CCCN(S(=O)(=O)c3cccs3)C2)ccn1 | 37 | -4.16
CCn1c(N2CCOCC2)nc2c1c(=O)n(Cc1ccc(Cl)cc1)c(=O)n2C | -5 | 0.61
CCCC1(C2CCN(C(=O)CCC(C)C)CC2)NC(=O)N(CCC2CCCN2C)C1=O (stereo not given) | -8 | 1.1
COCCCC(=O)N1C2CCC1CC(=O)NC2 (stereo not given) | -10 | 1.96
COCCc1nc(C2(Nc3ccc(Cl)cc3)CCC2)no1 | 33 | -4.5
CC(=O)Nc1cccnc1NC(=O)C1CC1c1ccc(F)c(F)c1 (stereo not given) | -11 | 1.19
CCCN1CCn2cc(S(=O)(=O)Nc3cccc(OC)c3)cc2C1=O | 1 | -0.17
CC(NC(=O)C(C)N1CCCC1c1ccc2c(c1)OCCO2)c1ccc(F)cc1 (stereo not given) | -9 | 1.66
Cc1cccc(NCc2nc(C)cs2)c1 | -1 | 0.07
CCn1ccc2cc(C(=O)N3CCC[C@@H]3COC)ccc21 | 3 | -0.46
CCC(N)(CC)CNS(=O)(=O)c1cc2c(cc1C)OCO2 | -6 | 1.05
CCCNC(=O)N1CCCC[C@H]1c1nncn1-c1ccccc1 | 0 | 0.01
FC1(F)CCN(Cc2ccc3cc(Cl)ccc3n2)CC1 | -8 | 1.57
COc1cc(C)n(CCNC(=O)c2ccoc2)c(=O)c1 | -2 | 0.4
O=S(=O)(c1cccs1)N1CC(Cc2nc(-c3cccnc3)no2)C1 | -13 | 1.73
CC(C)C(NC1CCCN(C(C)C)C1=O)c1nc(-c2nnc[nH]2)no1 (stereo not given) | -15 | 1.92
Cc1c(NC(=O)c2snc(O)c2Cl)c(=O)n(C2CCCCC2)n1C | 12 | -1.94
O=C(CCC(=O)c1ccccc1)NCc1nccnc1-c1ccncc1 | -4 | 0.79
CCc1cc(N2CCOC[C@@H](O)C2)ncn1 | -13 | 2.62
Cc1cc(F)cc(S(=O)(=O)N2CCC[C@H](n3cc(C)cn3)C2)c1 | -3 | 0.53
Cc1ccc(C)n1-c1cccc(C(=O)OCC(=O)Nc2ccccc2C(F)(F)F)c1 | 14 | -2.18
CCN(CC)CCCNC(=O)CCn1c(=O)c(C)nc2cc(C)c(C)cc21 | 1 | -0.16
CNC(=O)[C@@H]1CN(C(=O)Cc2ccc(Br)cc2)C[C@H]1CO | -13 | 1.9
COCCCn1c(C)cnc1[C@H]1CCN(Cc2ccccn2)C1 | -4 | 0.57

SMILES | % Inhibition [%] | Z score
Cc1cccc([C@H](C)NCCS(=O)(=O)C(C)(C)C)c1 | 1 | -0.07
COC(=O)[C@@]1(CO)N[C@@H](c2ccc3c(c2)OC(F)(F)O3)[C@H]2C(=O)N(C)C(=O)[C@H]21 | -19 | 2.85
Cc1ncc(CNC(=O)N2CCO[C@H](c3cccc(Cl)c3)[C@H]2C)o1 | -2 | 0.35
OC[C@H]1CN(c2nnc(-c3ccccc3)s2)C[C@H]1CN1CCC(O)CC1 | -6 | 1.13
CNS(=O)(=O)[C@H]1CCN(Cc2ccc(Cl)cc2C)C1 | -6 | 0.83
COCCn1nnnc1NC(=O)c1sc(C2CCCC2)nc1C | -6 | 0.82
COCCn1ccc(-c2sc(N)nc2C)n1 | -12 | 1.6
Cc1cc(C(=O)NS(=O)(=O)C2COC2)ccc1F | -3 | 0.52
Cc1nc(C(=O)N2CCN[C@H](c3ccccc3)C2)cs1 | 0 | 0
COCCNCCOc1ccc(Cl)c(C)c1 | -20 | 2.51
CCC(CC)C(=O)NCCc1nc(C)cs1 | -9 | 1.21
C[C@H]1CCCCN1Cc1ccc(CNC(=O)c2ccc(S(=O)(=O)NC3CC3)cc2)cc1 | -10 | 1.41
Cn1nc(C(=O)N2C3CCC2CC(CC(F)F)C3)cc1O (stereo not given) | -12 | 2.39
Cc1oc(C)c(C(=O)N2CCOc3ccccc3[C@@H]2CO)c1C | 2 | -0.28
Cc1nccc(-c2cccc(NC(=O)NCCCn3nc(C)c(C)c3C)c2)n1 | -3 | 0.39
C[C@H]1CCCN(C(=O)COCc2nc(-c3ccccc3)no2)CC1 | -4 | 0.56
N#Cc1ccc(C=Cc2ccc3c(c2)NC(=O)CO3)nc1 | 11 | -1.31
Cc1csc(NC(=O)c2c[nH]c(C)cc2=O)n1 | -17 | 1.89
O=C(N[C@H]1CCO[C@@H]1c1ccccc1)c1cc(C(F)F)ncn1 | 7 | -0.83
CCNS(=O)(=O)N1C[C@H](C(=O)OC)[C@@H](c2ccc(F)cc2F)C1 | -5 | 0.72
COc1ccc(C(=O)N[C@H]2C[C@H]3C(=O)NC[C@@H](CCC(=O)NCc4cccnc4)N3C2)cc1 | 30 | -3.34
CN(C[C@H]1CCCN1C)C(=O)NCc1nn(C)cc1Br | 0 | -0.05
CS(=O)(=O)N[C@H]1CCOC2(CCCC2)C1 | -18 | 2.26
CC(C)c1noc(COc2cc(OCc3nc(C(C)C)no3)c(Cl)cc2Cl)n1 | -8 | 1.48
FC(F)(F)c1cc(CNc2ncnc3c2CCCCC3)ccn1 | -5 | 0.79
C[C@H](NC(=O)Cc1noc(CCC2(C)CC2)n1)c1ccccc1 | 11 | -1.39
CC(C)(C)c1ccc([C@@H]2CCCN2)cc1 | -8 | 1.22
